Test results: the BET-seq Pho4 binding data (Le et al. 2018)
This is one part of the list. Values were computed here from the reads of four pooled replicates and scatter widely.

target: T1, Pho4 (S. cerevisiae) (UniProt P07270); test: relative binding free energy (BET-seq); higher = weaker binding; conditions: reference: library average
T1 sequence: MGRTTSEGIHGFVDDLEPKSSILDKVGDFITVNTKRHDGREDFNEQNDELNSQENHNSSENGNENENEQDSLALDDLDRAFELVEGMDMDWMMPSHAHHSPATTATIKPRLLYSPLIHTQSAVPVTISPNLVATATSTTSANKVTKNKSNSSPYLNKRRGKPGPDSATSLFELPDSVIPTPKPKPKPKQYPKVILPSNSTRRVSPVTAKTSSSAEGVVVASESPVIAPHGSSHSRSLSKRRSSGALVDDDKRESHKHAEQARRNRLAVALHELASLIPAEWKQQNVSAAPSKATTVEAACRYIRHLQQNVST

Row | Sequence | relative binding free energy [kcal/mol]
1 | TAGTGCACGTGAGGGA | 0.13
2 | TGTACCACGTGAGGTT | 0.19
3 | TGTTACACGTGTAAGG | 0.14
4 | TTTGACACGTGACTTA | 0.15
5 | GGGTACACGTGTGGTC | 0.14
6 | TTCGCCACGTGTTATG | 0.07
7 | TATAACACGTGTGGGA | 0.01
8 | TTTTACACGTGGAGTT | 0.21
9 | TGTCGCACGTGTGGTT | 0.07
10 | GGATACACGTGAGGTG | 0.32
11 | GGCTTCACGTGGGGAA | 0.26
12 | CTCGGCACGTGTCTGG | 0
13 | GGGCACACGTGTGGGA | 0
14 | CATGACACGTGTTTTT | 0.11
15 | CATTACACGTGTTTTT | 0.05
16 | GTTCACACGTGCAGGG | 0.13
17 | AGCGTCACGTGGGTGT | -0.06
18 | CTAGGCACGTGGTTGC | -0.17
19 | ATAGGCACGTGAATTG | 0.17
20 | TCAATCACGTGGTGGT | 0.18
21 | CGGTGCACGTGCGTGG | -0.14
22 | TTTTTCACGTGCTTGA | 0.28
23 | AAAGTCACGTGTGGGC | 0.12

Row | Sequence | relative binding free energy [kcal/mol]
24 | TGGTTCACGTGATAGG | 0.37
25 | TTTGTCACGTGTGGTT | 0.22
26 | TATTGCACGTGTGGTG | 0.05
27 | TTGGGCACGTGTGCTA | 0.08
28 | GTCGCCACGTGTGGTG | -0.09
29 | TTCGGCACGTGATTTG | -0.03
30 | TATTGCACGTGTAAGC | 0.12
31 | TGGCTCACGTGTAAGA | 0.31
32 | TTTTCCACGTGGTCAG | 0.01
33 | TAGCGCACGTGGGGTC | -0.32
34 | ATAGGCACGTGAATGA | 0.18
35 | CCATGCACGTGAGGGG | 0.24
36 | AGACTCACGTGTTAGG | 0.25
37 | TTTGCCACGTGGAGGG | -0.13
38 | TTTAGCACGTGAGGGT | 0.17
39 | AATTACACGTGGGTTC | 0.02
40 | AGGTTCACGTGTGAGG | 0.31
41 | CGGCGCACGTGGGGGG | -0.29
42 | TGTGGCACGTGGAGGT | -0.04
43 | TTCTTCACGTGGTTTT | 0.29
44 | TGCGGCACGTGGGGCT | -0.31
45 | GTTAACACGTGTCGGT | 0.1
46 | TATTGCACGTGTGTGA | 0.03

Row | Sequence | relative binding free energy [kcal/mol]
47 | TCTCGCACGTGGTTGT | -0.01
48 | GGTTGCACGTGTAATG | 0.13
49 | GGGCACACGTGAAGGG | 0.32
50 | TTGCTCACGTGGTGGA | 0.15
51 | GTTTGCACGTGGGGCG | -0.1
52 | TATCGCACGTGGCTGT | -0.14
53 | AGGAGCACGTGGGGCA | -0.19
54 | AATATCACGTGGTCAT | 0.07
55 | TCATACACGTGTGGGG | 0.03
56 | ACGGGCACGTGGGGAA | -0.29
57 | CGAAACACGTGTGTTG | 0.03
58 | GTTTGCACGTGCCAGG | 0.04
59 | GTGTGCACGTGCCGTG | -0.13
60 | TTGTGCACGTGTATAA | 0.04
61 | GGTATCACGTGTCTAT | 0.09
62 | CTGGTCACGTGGAGAT | 0.14
63 | GTAATCACGTGTCGGT | 0.26
64 | TGGTGCACGTGCTCGT | -0.27
65 | GTATGCACGTGGTATC | -0.06
66 | TTGACCACGTGTTTGG | -0.03
67 | AATAGCACGTGGTAGG | -0.19
68 | AAGTACACGTGGTGTA | 0.04
69 | TGGGTCACGTGACGCT | 0.32

Row | Sequence | relative binding free energy [kcal/mol]
70 | GGGGCCACGTGGGCAT | -0.27
71 | GATGTCACGTGTGGAC | 0.2
72 | TGTTGCACGTGACGGA | 0.01
73 | TTTTACACGTGATCTA | 0.18
74 | CTGGGCACGTGATGGC | -0.05
75 | GTTAACACGTGGGCGA | 0.01
76 | GATTGCACGTGAGGGT | 0.32
77 | TCGGGCACGTGTATGG | 0.05
78 | AGAGACACGTGTTATG | 0.07
79 | GGATACACGTGTGAGG | 0.19
80 | GGCAGCACGTGGTATG | -0.14
81 | ATCTGCACGTGGTAGT | -0.14
82 | TGCTGCACGTGGATGT | -0.12
83 | ACAGGCACGTGTGTAG | -0.07
84 | ATTTTCACGTGACTTG | 0.39
85 | GTTGGCACGTGTCGCG | -0.09
86 | TCGGACACGTGGCTTG | 0.08
87 | GTGGACACGTGTTAGC | 0.08
88 | GGAGGCACGTGATTAT | 0.13
89 | ATGGGCACGTGTTGTA | -0.13
90 | ATTTTCACGTGGTACA | 0.2
91 | AAGGTCACGTGGTCGG | -0.09
92 | TAGAGCACGTGGTTGG | -0.07

Row | Sequence | relative binding free energy [kcal/mol]
93 | CGGGTCACGTGAGGAA | 0.31
94 | TGTTGCACGTGTGTCC | -0.02
95 | GTGGTCACGTGGGTTT | 0.09
96 | CGAAGCACGTGTGGAG | 0.07
97 | ATAGGCACGTGCTCGT | -0.18
98 | GGTTCCACGTGTTAGG | 0.07
99 | TTTAGCACGTGGATAT | -0.13
100 | TAGCGCACGTGAAGGG | 0.13
101 | TTCATCACGTGACTTT | 0.38
102 | TGTATCACGTGAGGTC | 0.14
103 | TATATCACGTGGGTGT | 0.02
104 | GTTTGCACGTGTAAGG | 0.14
105 | GTAAGCACGTGACGGG | 0.13
106 | AGGTACACGTGAGGAT | 0.2
107 | ACGAGCACGTGGTAGT | -0.18
108 | TGTATCACGTGGTTAG | 0.08
109 | AGGTTCACGTGAAACG | 0.51
110 | ATTCGCACGTGTGGAA | 0.18
111 | GCAGACACGTGGATGG | 0.09
112 | TACGGCACGTGGTGAG | -0.18
113 | GTTCGCACGTGGTAAA | 0.06
114 | CTATTCACGTGTTGAG | 0.17
115 | TTGCCCACGTGTTTGT | -0.09
